Whole data set: some 33,000 sequences, median “E-score (-0.5 to 0.5)” near -0.021, cut for the highest 2% near 0.32. The list shows a part of the results.
Each sequence was assayed against T1, Zap1 (UniProt P47043) (assay: PBM E-score (8-mer binding enrichment) (E-score (-0.5 to 0.5)); higher = stronger / more preferred TF binding; most listed sequences are background and not binding sites). Conditions: protein concentration: 200 nM; construct: GST-full length.
T1 sequence: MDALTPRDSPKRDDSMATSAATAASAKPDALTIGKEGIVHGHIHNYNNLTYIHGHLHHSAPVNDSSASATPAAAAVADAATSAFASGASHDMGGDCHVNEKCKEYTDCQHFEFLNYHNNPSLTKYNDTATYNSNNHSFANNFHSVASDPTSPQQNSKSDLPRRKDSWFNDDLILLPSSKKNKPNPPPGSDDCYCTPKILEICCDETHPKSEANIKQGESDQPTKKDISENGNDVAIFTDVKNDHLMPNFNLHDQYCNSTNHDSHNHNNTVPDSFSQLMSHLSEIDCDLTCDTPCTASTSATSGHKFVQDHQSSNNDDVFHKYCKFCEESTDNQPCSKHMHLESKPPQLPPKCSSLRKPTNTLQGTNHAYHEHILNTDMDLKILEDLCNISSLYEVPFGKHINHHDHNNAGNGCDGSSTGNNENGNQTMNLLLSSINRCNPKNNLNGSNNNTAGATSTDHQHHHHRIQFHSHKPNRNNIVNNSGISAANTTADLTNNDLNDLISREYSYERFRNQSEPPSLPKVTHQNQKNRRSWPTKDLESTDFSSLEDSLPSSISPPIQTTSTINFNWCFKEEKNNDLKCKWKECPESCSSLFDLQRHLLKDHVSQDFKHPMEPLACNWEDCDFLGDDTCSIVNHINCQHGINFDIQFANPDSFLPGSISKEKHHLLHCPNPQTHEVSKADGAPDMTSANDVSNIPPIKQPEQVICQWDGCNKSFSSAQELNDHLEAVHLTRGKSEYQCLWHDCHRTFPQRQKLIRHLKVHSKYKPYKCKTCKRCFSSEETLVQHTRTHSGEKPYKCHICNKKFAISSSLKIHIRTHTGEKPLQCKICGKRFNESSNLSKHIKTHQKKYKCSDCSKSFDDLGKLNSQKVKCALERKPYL
Description: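 Universal 'all 10-mer' protein binding microarrays (Agilent AMADID 015681) probed with GST-tagged S. cerevisiae TFs (full-length or DBD) made by in vitro transcription/translation (PURExpress), about 100-200 nM. Bound TF was detected with fluorescent anti-GST. Each ungapped 8-mer (which stands for itself and its reverse complement) is scored by the PBM enrichment score (E-score), a modified Wilcoxon-Mann-Whitney statistic from -0.5 to +0.5, computed with the Universal PBM Analysis Suite. Scale: above 0.35 generally sequence-specific binding.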

Row | Sequence | PBM E-score
1 | AAGATAAT | 0.142
2 | CCGCGGTC | 0.0304
3 | GCGGTCAA | 0.116
4 | CATATTTA | 0.122
5 | GCCCTAGC | -0.148
6 | TCACGTCA | 0.104
7 | TTTGCAAA | 0.232
8 | GTCTAGCA | -0.139
9 | AGTGGGGC | -0.27
10 | GAAGTGCA | -0.0999
11 | TAAAGTGA | 0.175
12 | ACGGTAAA | -0.0274
13 | ACTCCAAG | -0.021
14 | GAGTTGCC | -0.198
15 | ACCCTTGA | 0.383
16 | ACAATGCG | -0.0835
17 | ACAGTGTA | 0.0586
18 | CATCTCGC | -0.291
19 | AGCTAGTC | -0.241
20 | AGTTGCGA | 0.16
21 | AACTGTCA | -0.00667
22 | ACCTGCAG | 0.0978
23 | CCCTCGAG | 0.159
24 | AAGACGTC | -0.0621
25 | CCTATGAG | 0.105

Row | Sequence | PBM E-score
26 | AGAGCGAC | -0.0982
27 | AGATGACG | -0.236
28 | AAAAACGC | 0.0461
29 | GGTGCTCA | 0.069
30 | AATCTAGA | 0.0363
31 | CGGACCGC | -0.0697
32 | AGAAGCAC | -0.185
33 | ATCTAACG | -0.0741
34 | AGTAGGAC | -0.22
35 | TGCCACCA | -0.19
36 | ACTGATAG | -0.0352
37 | ACGTTAAG | -0.0481
38 | ACCTAAGC | 0.0446
39 | CGGATACC | 0.255
40 | AGATCAGA | -0.0903
41 | CGTTCTCC | -0.14
42 | ACGTCCAC | -0.184
43 | GAACCAAA | 0.186
44 | AGCATAAA | 0.083
45 | ACCGAAAT | 0.149
46 | AGCCACCC | -0.108
47 | AAAGGTAT | 0.293
48 | AGCAGTCG | -0.132
49 | GCTGCGCC | -0.345
50 | CAACTAAG | -0.00117

Row | Sequence | PBM E-score
51 | AGCCCTTC | -0.134
52 | TTACGTAA | 0.128
53 | CAGCTGCA | -0.292
54 | CAAGTCTC | -0.2
55 | AGCCGACT | -0.213
56 | ACAAACAG | 0.215
57 | TCTGGGCA | -0.103
58 | TGAAGACA | -0.00651
59 | GATAAGAA | 0.178
60 | CCCGGCCA | -0.0437
61 | CGCGCCGA | -0.0722
62 | CGAGCATC | -0.207
63 | AGCCGTAC | -0.14
64 | AGAACGAA | 0.0755
65 | CGATAGTA | -0.123
66 | CTACATGA | -0.102
67 | CTGTTTGC | -0.00815
68 | AGGCCACG | 0.148
69 | TAGCGCGA | 0.18
70 | CGATTGAA | -0.154
71 | AGAAGGAA | -0.212
72 | AGATAGCA | 0.0811
73 | ACGTGTTA | -0.0246
74 | AGCGTTAA | 0.054
75 | CTAGGCGA | -0.131

Row | Sequence | PBM E-score
76 | GACTTTAC | -0.0251
77 | ATTGTTCA | 0.0541
78 | ACGGGAAC | 0.037
79 | GAAGTGTC | -0.208
80 | ACTGAGTG | -0.152
81 | AGGTTTCA | 0.222
82 | ACTAAGCA | -0.191
83 | CCTGCTGC | 0.0023
84 | ATCAGAGA | -0.123
85 | CATTCTAA | 0.173
86 | AATCACTC | -0.146
87 | ACGCACCA | 0.0673
88 | TACTATCA | 0.0831
89 | ACCCGCGT | 0.103
90 | GGGGCAGA | -0.272
91 | CATATACC | -0.0793
92 | GTTTCGCA | -0.193
93 | ACTCTGTC | -0.169
94 | ATACTTTC | 0.0164
95 | GCCACGAA | -0.0613
96 | GTCAGCAC | -0.128
97 | CTTGATAA | 0.11
98 | CGCTCGCA | 0.11
99 | AAAACAGA | -0.00762
100 | ACCCCCAT | 0.0539

Row | Sequence | PBM E-score
101 | ATATGTCC | -0.00136
102 | CCGCACTA | 0.00052
103 | CTTCCTAA | 0.0693
104 | CCGAACCC | -0.0867
105 | CGTGGGAG | -0.166
106 | TAATCCAA | 0.11
107 | CCCTCTCA | -0.23
108 | ACTCGAAG | -0.152
109 | CCCCAAAC | 0.0917
110 | CCCGAGTA | -0.0893
111 | AACGGACC | 0.00508
112 | ACCGAGAG | 0.0813
113 | GGGCGTGA | -0.0483
114 | CCGAAGAG | -0.261
115 | GCCGCTTA | -0.00919
116 | GTCGACAA | -0.0455
117 | TATACAAA | 0.196
118 | AGCTGTCG | -0.213
119 | CCAATGAG | -0.133
120 | ACAAGTTC | -0.0552
121 | AATTACGC | -0.0544
122 | CTGACGGC | -0.263
123 | ATCACAGA | 0.0662
124 | AGGCAAAA | 0.119
125 | AGCCAGAT | -0.125

Row | Sequence | PBM E-score
126 | GGAACTAA | 0.106
127 | ACAGTATG | 0.0365
128 | AGCGCCTC | -0.279
129 | CACTTCCA | -0.0774
130 | AGTCCACA | 0.0582
131 | CGGGTTCA | 0.0209
132 | CATATAAC | 0.221
133 | ACCCCACT | 0.217
134 | GGTCTTCA | 0.0243
135 | CAAGCCGA | -0.0853
136 | AAATGTAT | 0.082
137 | CAGATGTA | -0.224
138 | AACATTAT | -0.0194
139 | AAGCACAG | -0.11
140 | AACAGTCG | -0.121
141 | AAAGCAAC | 0.0537
142 | GGGGATAA | 0.148
143 | ACTCCGGG | 0.166
144 | CCCTTCGC | -0.0395
145 | TCTAGCCA | 0.0396
146 | GCCAAGTA | -0.136
147 | CGCTACTA | -0.0303
148 | AACACCCA | -0.0123
149 | ACATTGCG | -0.0448
150 | ATTCGTGA | 0.0081

Row | Sequence | PBM E-score
151 | GCGCTGTA | -0.043
152 | GCACGAAA | -0.0815
153 | GCAGCCGA | -0.153
154 | ATAGAGAT | -0.0573
155 | GAGTGCCA | -0.241
156 | GACAATGA | 0.00712
157 | ATCATATC | 0.0199
158 | CAGGACAC | -0.0793
159 | TATAATCA | 0.245
160 | ATCAACGA | -0.00872
161 | AACAACCG | 0.1
162 | AAATATAT | 0.224
163 | TGCTGACA | -0.139
164 | CAAGAATC | -0.0146
165 | CGCAAAAA | 0.134
166 | AGGCTTCC | -0.229
167 | CCCGTGAA | -0.0297
168 | GAATCGCC | -0.224
169 | TTGGTAAA | 0.166
170 | AGGAGGCA | -0.123
171 | CGGATGTA | -0.201
172 | GTAGAAAA | 0.124

From the supplement of paper PMC3334620
